Test results published in US20080044844A1 (priority 2004, published 2008).

Conditions: LD50(mg/kg)×70 kg/2 L, LD50 oral in rats
For Oc1cc(Cl)c(Cl)cc1Cl [2,4,5-Trichlorophenol], the “TDC (Target Detection Concentration)” value was 2,960 mg/l. In the case of Oc1c(Cl)cccc1Cl [2,6-Dichlorophenol], the “TDC (Target Detection Concentration)” value is reported as 6,550 mg/l. With CNC(=S)[S-].[Na+] [Metham Sodium] the “TDC (Target Detection Concentration)” value was 28,700 mg/l. With C[n+]1ccc(-c2cc[n+](C)cc2)cc1 [Paraquat] the “TDC (Target Detection Concentration)” value was 5,250 mg/l.
